# Inconclusive results, whose numbers are uncertain, are shown with a selection of clear calls. For some assays here: Potencies of inconclusive entries are doubtful fits and often do not repeat. Calls of active or inactive are those of the source. Unless noted, calls come from the whole dose curve; as a rule, active = well fitted curve in the direction sought with a large enough effect; inconclusive = small, poorly fitted or top-dose-only effect, or another doubt; inactive = no such curve, though single readings can be large; an effect the other way counts as inactive or inconclusive.
# Assays:
# [1] = Confirmatory qHTS to identify inhibitors of SARS-CoV-2 cell entry (AID 1645844; calls by dose curve; note: potency is the fitted concentration of half-maximal effect; nearly all actives have a fitted effect of over 45% in size); conditions: SARS-CoV-2 pseudotyped particle cell entry, luciferase; activity, negative = inhibition: at 57.2 µM (top of the series)
# Summary of the method: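 Luminescence from a luciferase reporter, read 48 hr after pseudotyped-particle addition, gives entry signal, normalised to spike-bearing PP wells and bald PP lacking fusion protein wells. Cells are Expi293F stably expressing human ACE2, compound-pretreated 1 hr.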
# [2] = molecular target: Nuclear receptor subfamily 1 group I member 3 (Homo sapiens) (UniProt Q14994); assay: Primary qHTS for antagonist of constitutive androstane receptor (CAR) against the NCATS DSHEA and TCM libraries (AID 1794836); note: potency is the fitted concentration of half-maximal effect
# Summary of the method: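 Antagonist mode: CAR reporter luminescence (ONE-Glo) in HepG2-CYP2B6-hCAR cells stimulated with 48 uM CITCO (final) over 24 h at 37 C, compounds titrated; viability read first by CellTiter-Fluor fluorescence.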
# [3] = molecular target: Nuclear receptor subfamily 1 group I member 3 (Homo sapiens) (UniProt Q14994); assay: Primary qHTS for agonist of constitutive androstane receptor (CAR) against the NCATS DSHEA and TCM libraries (AID 1794839); conditions: Potency: CAR antagonist co-added at 0.75 µM unless noted; note: potency is the fitted concentration of half-maximal effect
# Summary of the method: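 HepG2-CYP2B6-hCAR cells, 2,500/well, attached 5 h, then dosed with 0.75 µM PK11195 (final) for 24 h at 37 °C. Luciferase luminescence read (ONE-Glo); CellTiter-Fluor viability (Ex/Em 405/540 nm) in same wells; CITCO positive control.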
# [4] = molecular target: Cytochrome P450 1A2 (Homo sapiens) (UniProt P05177); assay: qHTS for inhibitors of CYPIA2 against the NCATS DSHEA and TCM libraries (AID 1919976); note: potency is the fitted concentration of half-maximal effect
# Summary of the method: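 In this quantitative HTS, inhibition of recombinant human CYP1A2 was measured as loss of luciferin-derived luminescence. Turnover ran 30-45 min at RT after NADPH regeneration solution was added.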
# [5] = KB-8-5-11 P-gp reporter qHTS against the NCATS DSHEA and TCM libraries (AID 1919977); conditions: KB-8-5-11 cells; note: potency is the fitted concentration of half-maximal effect
# Summary of the method: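 P-gp-overexpressing KB-8-5-11 cells were screened in colchicine-free medium at 500 cells/well, as a titration series. Cells were exposed for 72 h at 37C. Viability was read by CellTiter-Glo luminescence after 30 min at room temperature.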
# [6] = Dual reporter qHTS for agonist of Pregnane X Receptor (hPXR) against the NCATS DSHEA and TCM libraries: Fluorescence readout (AID 1920058); conditions: PXR dual reporter cells; at 40 µM (top of the series); note: 0% is about no effect
# Summary of the method: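 Measures viability of the PXR reporter HepG2 line by protease-substrate fluorescence (405/540 nm), taken 1 h after CellTiter-Fluor addition. Substances are tested as concentration series over a ~24 h exposure, with rifampicin as agonist control.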
# [7] = Primary qHTS for inhibitors of MERS-S pseudo-typed particle cell entry (AID 1479149; calls by dose curve; note: potency is the fitted concentration of half-maximal effect; nearly all actives have a fitted effect of over 60% in size); conditions: outcome: dose series up to 57.1 µM unless noted
# [8] = test system: Zika virus NS2B-NS3 protease (unlinked complex); assay: Confirmatory screen GU AMC qHTS for Zika virus inhibitors (AID 1347153);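 note: percent inhibition with 0% = no inhibitor control and 100% = no enzyme control; nearly all actives have a fitted effect of over 70% in size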
# Summary of the method: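 Fluorescence change (ex 340/em 450 nm) over 15 min, ~20% substrate conversion, normalized to no-inhibitor and no-enzyme controls, then Hill-fitted. Unlinked protease at 25 nM; AMC peptide 10 µM.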
# [9] = molecular target: Cytochrome P450 2D6 (Homo sapiens) (UniProt P10635); assay: qHTS Assay for Inhibitors and Substrates of Cytochrome P450 2D6 (AID 891);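 note: luciferin methyl ether substrate demethylated by CYP2D6 with NADPH regeneration; top concentration of the series differs between compounds; % is set by controls: 0 for no effect and ±100 for the full control effect; nearly all actives have a fitted effect of over 60% in size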
# Summary of the method: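 Human CYP2D6 (5 nM) with 30 uM Luciferin-ME EGE (at Km) in 100 mM KPO4, compound preincubated 10 min, then NADPH regeneration system for 60 min at room temperature. Luciferin read by luminescence; normalized to 1.43 uM quinidine.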
# [10] = molecular target: ATP-dependent 6-phosphofructokinase (Trypanosoma brucei brucei) (UniProt O15648); assay: qHTS Assay to Find Inhibitors of T. brucei phosphofructokinase: hit validation (AID 492961); note: potency is the fitted concentration of half-maximal effect
# Summary of the method: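 ADP-Glo luminescence read-out of ADP formed by 1.25 nM PFK from 0.1 mM ATP and 0.5 mM F6P (TEA pH 8.0, 45 min, RT). Compounds titrated; activity normalized to no-enzyme and full-enzyme controls.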
# [11] = qHTS to identify inhibitors of the type 1 interferon - major histocompatibility complex class I in skeletal muscle: primary screen against the NCATS Mechanism Interrogation Plate v5.0 (MIPE) Libary (AID 1347411); conditions: iHSKM cells + IFN-b, HiBiT-tagged MHC-I luminescence, 24 h; activity change, negative = inhibition: at 45.8 µM (top of the series); note: potency is the fitted concentration of half-maximal effect; nearly all actives have a fitted effect of over 65% in size
# Summary of the method: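 Cells were genome-edited human myoblasts carrying a HiBit tag on endogenous HLA-B. They were treated with IFN-beta (4.0 ng/ml) and titrated compounds (top 46 uM) for 24 hrs before lytic HiBiT detection.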
# [12] = Cytotoxicity counterscreen for inhibitors of SARS-CoV-2 cell entry (AID 1645845; calls by dose curve; note: potency is the fitted concentration of half-maximal effect; nearly all actives have a fitted effect of over 50% in size); conditions: activity change, negative = cytotoxicity: at 57.1 µM (top of the series) unless noted
# Summary of the method: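 48 h compound treatment (after 1 h preincubation), HEK293-ACE2 cells, 37 C/5% CO2; ATP luminescence endpoint; normalized to cell wells and media blanks.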
# [13] = OV-KATE Cancer Cell Toxicity qHTS against the NCATS CANVASS Library (AID 1347345); note: potency is the fitted concentration of half-maximal effect
# Summary of the method: (§1)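 1000 cells/well seeded and rested 4 h at 37 °C before pin transfer of compounds in an 11-pnt series. Exposure 72 h at 37 °C/5% CO2; viability by CellTiter-Glo luminescence after 15 min at room temperature.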
# [14] = UWB1.289 Cancer Cell Toxicity qHTS against the NCATS CANVASS Library (AID 1347347); note: potency is the fitted concentration of half-maximal effect; nearly all actives have a fitted effect of over 60% in size
# Summary of the method: as §1
# [15] = OV-SAHO Cancer Cell Toxicity qHTS against the NCATS CANVASS Library (AID 1347348); conditions: OV-SAHO viability, CellTiter-Glo luminescence, 72 h; activity change, negative = cytotoxicity: at 38.3 µM (top of the series); note: potency is the fitted concentration of half-maximal effect; nearly all actives have a fitted effect of over 55% in size
# Summary of the method: as §1
# [16] = U-118MG Cancer Cell Toxicity qHTS against the NCATS CANVASS Library (AID 1347351); note: potency is the fitted concentration of half-maximal effect
# Summary of the method: as §1
# [17] = COV-362 Cancer Cell Toxicity qHTS against the NCATS CANVASS Library (AID 1347352); note: potency is the fitted concentration of half-maximal effect
# Summary of the method: (§2)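 qHTS cytotoxicity: compounds tested in 11 concentrations on 1000 seeded cells per well over 72 h; bortezomib served as control; signal from CellTiter-Glo luminescence.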
# [18] = UWB1.289-WTBRCA1 Cancer Cell Toxicity qHTS against the NCATS CANVASS Library (AID 1347354); note: % is set by controls: 0 for no effect and ±100 for the full control effect
# Summary of the method: as §2
# [19] = KB-8-5-11 Cancer Cell Toxicity qHTS against the NCATS CANVASS Library (AID 1347364); note: potency is the fitted concentration of half-maximal effect; nearly all actives have a fitted effect of over 75% in size
# Summary of the method: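 Natural products were titrated in 11 points onto KB-8-5-11 cells, 500 per well, and cytotoxicity was scored from CellTiter-Glo luminescence after 72 hr culture.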
# [20] = MCF7 Cancer Cell Toxicity qHTS against the NCATS CANVASS Library (AID 1347369); note: potency is the fitted concentration of half-maximal effect
# Summary of the method: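 MCF7 cells (500/well) were exposed 72 h at 37 °C to compounds in an 11-point series. Viability was read as ATP content by CellTiterGlo luminescence.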
# Tags give direction and shape of the fitted curve.
# Sequence of UniProt Q14994 (Q14994 whole entry, looked up): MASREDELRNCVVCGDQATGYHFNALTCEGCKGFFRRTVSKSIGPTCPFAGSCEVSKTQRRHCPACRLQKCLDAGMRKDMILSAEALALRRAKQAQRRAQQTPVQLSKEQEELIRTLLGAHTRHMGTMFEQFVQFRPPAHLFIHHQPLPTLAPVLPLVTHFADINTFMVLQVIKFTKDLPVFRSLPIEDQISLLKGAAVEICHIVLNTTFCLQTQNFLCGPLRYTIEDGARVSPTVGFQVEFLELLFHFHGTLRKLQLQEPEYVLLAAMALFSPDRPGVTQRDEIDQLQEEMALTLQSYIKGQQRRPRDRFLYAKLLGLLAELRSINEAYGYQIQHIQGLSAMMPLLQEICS
# Sequence of UniProt P10635 (P10635 whole entry, looked up): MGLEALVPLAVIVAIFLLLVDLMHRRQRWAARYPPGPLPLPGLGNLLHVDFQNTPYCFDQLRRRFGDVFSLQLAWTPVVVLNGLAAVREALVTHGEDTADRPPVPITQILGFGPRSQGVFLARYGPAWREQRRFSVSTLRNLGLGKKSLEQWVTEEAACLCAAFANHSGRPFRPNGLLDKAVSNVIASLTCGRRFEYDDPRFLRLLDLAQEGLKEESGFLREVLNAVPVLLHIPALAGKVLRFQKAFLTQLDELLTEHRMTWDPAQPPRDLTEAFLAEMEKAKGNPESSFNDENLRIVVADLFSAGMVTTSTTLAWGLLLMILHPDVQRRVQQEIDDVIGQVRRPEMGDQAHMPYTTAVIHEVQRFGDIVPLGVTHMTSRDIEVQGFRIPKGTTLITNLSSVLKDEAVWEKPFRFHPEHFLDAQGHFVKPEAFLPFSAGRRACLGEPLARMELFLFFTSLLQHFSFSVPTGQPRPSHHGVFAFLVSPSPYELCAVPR
# Sequence of UniProt O15648 (O15648 whole entry, looked up): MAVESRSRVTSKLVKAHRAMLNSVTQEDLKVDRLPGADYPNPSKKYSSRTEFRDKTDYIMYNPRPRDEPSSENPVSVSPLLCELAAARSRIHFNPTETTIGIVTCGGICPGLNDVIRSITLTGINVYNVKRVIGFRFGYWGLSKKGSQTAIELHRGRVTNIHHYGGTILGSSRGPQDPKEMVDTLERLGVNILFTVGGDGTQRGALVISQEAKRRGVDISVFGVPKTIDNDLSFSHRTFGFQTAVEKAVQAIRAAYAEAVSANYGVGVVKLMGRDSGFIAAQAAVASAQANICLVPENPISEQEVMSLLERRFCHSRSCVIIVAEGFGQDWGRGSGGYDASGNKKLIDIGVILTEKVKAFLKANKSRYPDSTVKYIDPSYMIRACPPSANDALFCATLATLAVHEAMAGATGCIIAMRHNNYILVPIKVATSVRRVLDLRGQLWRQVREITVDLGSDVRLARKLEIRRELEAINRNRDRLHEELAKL
# Sequence of UniProt P05177 (P05177 whole entry, looked up): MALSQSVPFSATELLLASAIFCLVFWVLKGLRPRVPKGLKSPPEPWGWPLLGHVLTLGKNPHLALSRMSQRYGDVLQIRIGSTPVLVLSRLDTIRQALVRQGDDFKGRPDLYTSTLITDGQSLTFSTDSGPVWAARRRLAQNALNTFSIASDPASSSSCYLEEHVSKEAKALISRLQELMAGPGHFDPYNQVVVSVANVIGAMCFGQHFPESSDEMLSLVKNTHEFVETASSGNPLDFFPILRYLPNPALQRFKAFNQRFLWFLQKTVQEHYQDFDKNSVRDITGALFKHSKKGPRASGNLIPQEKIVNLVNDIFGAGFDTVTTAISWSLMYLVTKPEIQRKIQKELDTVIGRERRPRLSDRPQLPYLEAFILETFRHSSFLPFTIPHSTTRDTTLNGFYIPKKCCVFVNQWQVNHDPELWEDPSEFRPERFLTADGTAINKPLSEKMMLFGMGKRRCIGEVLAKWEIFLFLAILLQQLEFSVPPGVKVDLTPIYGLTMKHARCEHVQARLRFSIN
structure (smiles),measurement,setting,value
C=C(C)[C@@H]1CCC(C)=C[C@H]1c1c(O)cc(CCCCC)cc1O,Potency,[1],"inconclusive: 4.82 µM [inhibitor, full curve, poor fit]"
same,Potency,[2],"inconclusive: 39.8 µM [inhibitor, single point]"
same,Potency,[3],active: 31.6 µM [setting not given]
same,Potency,[4],active: 11.2 µM
same,Potency,[5],"inconclusive: 22.4 µM [inhibitor, partial curve, poor fit]"
same,activation,[6],inconclusive: 41.3% [activator]
CC(C)NC(C)Cc1ccc(I)cc1 (stereo not given),Potency,[7],"inconclusive: 28.2 µM [inhibitor, single point]"
C[C@@H]1[C@@H]2Cc3ccc(O)cc3[C@@]1(C)CCN2CCc1ccccc1,Potency,[8],inactive
CCCCc1ccc(C(=O)O)nc1,Potency,[9],inactive
same,Potency,[10],"inconclusive: 28.2 µM [activator, partial curve, poor fit]"
O=C(NCCCNc1nc(Nc2ccc(N3CCOCC3)cc2)ncc1C1CC1)C1CCC1,Potency,[11],"inconclusive: 6.58 µM [inhibitor, partial curve]"
same,Potency,[12],active: 22.4 µM
COc1ccc2c(c1)[nH]c1c(C)nccc12,Potency,[13],"inconclusive: 27.3 µM [cytotoxic, partial curve]"
same,Potency,[14],"inconclusive: 34.4 µM [cytotoxic, partial curve]"
same,Potency,[15],"inconclusive: 34.4 µM [cytotoxic, partial curve]"
same,Potency,[16],"inconclusive: 27.3 µM [cytotoxic, partial curve]"
same,Potency,[17],active: 38.6 µM
same,Potency,[18],inactive
same,Potency,[19],active: 38.2 µM
same,Potency,[20],active: 34 µM

# Source: PubChem BioAssay (NCATS)
